# T1: ER-α36 (Homo sapiens, UniProt P03372)
# T1 sequence (P03372 284-310 isoform P03372-4): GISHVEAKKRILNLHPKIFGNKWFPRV
# Biological target: T1, ER-α36
# Assay: Biacore binding affinity of chimeric and humanized antibodies (Example 9)
# Procedure: The humanized antibodies were purified and characterized using ELISA and Biacore for binding analysis.
# The humanized antibodies were tested for their binding affinity to ER-α36.
row,Molecule,Ka
1,"SNGhB1: chimeric antibody: SNGmB1 V regions + human κC and human IgG1 C, SEQ ID NO: 20 and 22 (protein, SNGmB1 light chain V region + Hu C; SNGmB1 heavy chain V region + Hu IgG1 C) light: ETTVTQSPASLSMTIGEKVTIRCITSTDIDDDMNWYRKKPGQPPKLLISEGNTLRPGVPSRFSSSGYGTDFVFTIENMLSEDVADYYCLQSDNLPLTFGAGTKLELKRTVAAPSVFIFPPSDEQLKSGTASVVCLLNNFYPREAKVQWKVDNALQSGNSQESVTEQDSKDSTYSLSSTLTLSKADYEKHKVYACEVTHQGLSSPVTKSFNRGEC heavy: QAYLQQSGAELVRPGASVKMSCKASGYTFTSHNMHWIKQTPRQGLEWIGAIHPVNGDTAYNQKFKGKATLTVDKSSSTAYLQLSSLTSEESAVYFCAREGYGSVDYWGQGTTLTVSS[letters of human IgG1 constant region left out]",1.74e+06 M⁻¹ s⁻¹
2,"SNGHZD (C3L + C6H): humanized antibody, light chain SEQ ID NO: 28, heavy chain SEQ ID NO: 32 (antibody, humanized SNGmB1 heavy chain V region T28 + Hu IgG1 C; humanized SNGmB1 light chain V region V4, P44, L46, S49 + Hu C) heavy: QVQLVQSGAEVKKPGASVKVSCKASGYTFTSHNMHWVRQAPGQGLEWIGAIHPVNGDTAYNQKFKGKATLTVDKSTSTAYMELSSLRSEDTAVYYCAREGYGSVDYWGQGTLVTVSS[letters of human IgG1 constant region left out] light: ETTVTQSPAFMSATPGDKVNISCITSTDIDDDMNWYQQKPGEAPILIISEGNTLRPGIPPRFSGSGYGTDFTLTINNIESEDAAYYFCLQSDNLPLTFGQGTKLEIKRTVAAPSVFIFPPSDEQLKSGTASVVCLLNNFYPREAKVQWKVDNALQSGNSQESVTEQDSKDSTYSLSSTLTLSKADYEKHKVYACEVTHQGLSSPVTKSFNRGEC",1.33e+06 M⁻¹ s⁻¹
3,"SNGHZD (C2L + C6H): humanized antibody, light chain SEQ ID NO: 26, heavy chain SEQ ID NO: 32 (antibody, humanized SNGmB1 heavy chain V region T28 + Hu IgG1 C; humanized SNGmB1 light chain V region V4, L46, S49, S64 + Hu C) heavy: QVQLVQSGAEVKKPGASVKVSCKASGYTFTSHNMHWVRQAPGQGLEWIGAIHPVNGDTAYNQKFKGKATLTVDKSTSTAYMELSSLRSEDTAVYYCAREGYGSVDYWGQGTLVTVSS[letters of human IgG1 constant region left out] light: ETTVTQSPAFMSATPGDKVNISCITSTDIDDDMNWYQQKPGEAAILIISEGNTLRPGIPPRFSSSGYGTDFTLTINNIESEDAAYYFCLQSDNLPLTFGQGTKLEIKRTVAAPSVFIFPPSDEQLKSGTASVVCLLNNFYPREAKVQWKVDNALQSGNSQESVTEQDSKDSTYSLSSTLTLSKADYEKHKVYACEVTHQGLSSPVTKSFNRGEC",1.28e+06 M⁻¹ s⁻¹
4,"SNGHZD (C2L + C5H): humanized antibody, light chain SEQ ID NO: 26, heavy chain SEQ ID NO: 30 (antibody, humanized SNGmB1 heavy chain V region T28, L81 + Hu IgG1 C; humanized SNGmB1 light chain V region V4, L46, S49, S64 + Hu C) heavy: QVQLVQSGAEVKKPGASVKVSCKASGYTFTSHNMHWVRQAPGQGLEWIGAIHPVNGDTAYNQKFKGKATLTVDKSTSTAYLELSSLRSEDTAVYYCAREGYGSVDYWGQGTLVTVSS[letters of human IgG1 constant region left out] light: ETTVTQSPAFMSATPGDKVNISCITSTDIDDDMNWYQQKPGEAAILIISEGNTLRPGIPPRFSSSGYGTDFTLTINNIESEDAAYYFCLQSDNLPLTFGQGTKLEIKRTVAAPSVFIFPPSDEQLKSGTASVVCLLNNFYPREAKVQWKVDNALQSGNSQESVTEQDSKDSTYSLSSTLTLSKADYEKHKVYACEVTHQGLSSPVTKSFNRGEC",3.46e+06 M⁻¹ s⁻¹

# Other lines, results leading:
row,Ka,Molecule
1,3.54e+06 M⁻¹ s⁻¹,"SNGHZD (C3L + C5H): humanized antibody, light chain SEQ ID NO: 28, heavy chain SEQ ID NO: 30 (antibody, humanized SNGmB1 heavy chain V region T28, L81 + Hu IgG1 C; humanized SNGmB1 light chain V region V4, P44, L46, S49 + Hu C) heavy: QVQLVQSGAEVKKPGASVKVSCKASGYTFTSHNMHWVRQAPGQGLEWIGAIHPVNGDTAYNQKFKGKATLTVDKSTSTAYLELSSLRSEDTAVYYCAREGYGSVDYWGQGTLVTVSS[letters of human IgG1 constant region left out] light: ETTVTQSPAFMSATPGDKVNISCITSTDIDDDMNWYQQKPGEAPILIISEGNTLRPGIPPRFSGSGYGTDFTLTINNIESEDAAYYFCLQSDNLPLTFGQGTKLEIKRTVAAPSVFIFPPSDEQLKSGTASVVCLLNNFYPREAKVQWKVDNALQSGNSQESVTEQDSKDSTYSLSSTLTLSKADYEKHKVYACEVTHQGLSSPVTKSFNRGEC"
2,2.89e+06 M⁻¹ s⁻¹,"SNGHZD (C1L + C6H): humanized antibody, light chain SEQ ID NO: 24, heavy chain SEQ ID NO: 32 (antibody, humanized SNGmB1 heavy chain V region T28 + Hu IgG1 C; humanized SNGmB1 light chain V region V4, P44, L46, S49, S64 + Hu C) heavy: QVQLVQSGAEVKKPGASVKVSCKASGYTFTSHNMHWVRQAPGQGLEWIGAIHPVNGDTAYNQKFKGKATLTVDKSTSTAYMELSSLRSEDTAVYYCAREGYGSVDYWGQGTLVTVSS[letters of human IgG1 constant region left out] light: ETTVTQSPAFMSATPGDKVNISCITSTDIDDDMNWYQQKPGEAPILIISEGNTLRPGIPPRFSSSGYGTDFTLTINNIESEDAAYYFCLQSDNLPLTFGQGTKLEIKRTVAAPSVFIFPPSDEQLKSGTASVVCLLNNFYPREAKVQWKVDNALQSGNSQESVTEQDSKDSTYSLSSTLTLSKADYEKHKVYACEVTHQGLSSPVTKSFNRGEC"
3,744000 M⁻¹ s⁻¹,"SNGHZD (C1L + C5H): humanized antibody, light chain SEQ ID NO: 24, heavy chain SEQ ID NO: 30 (antibody, humanized SNGmB1 heavy chain V region T28, L81 + Hu IgG1 C; humanized SNGmB1 light chain V region V4, P44, L46, S49, S64 + Hu C) heavy: QVQLVQSGAEVKKPGASVKVSCKASGYTFTSHNMHWVRQAPGQGLEWIGAIHPVNGDTAYNQKFKGKATLTVDKSTSTAYLELSSLRSEDTAVYYCAREGYGSVDYWGQGTLVTVSS[letters of human IgG1 constant region left out] light: ETTVTQSPAFMSATPGDKVNISCITSTDIDDDMNWYQQKPGEAPILIISEGNTLRPGIPPRFSSSGYGTDFTLTINNIESEDAAYYFCLQSDNLPLTFGQGTKLEIKRTVAAPSVFIFPPSDEQLKSGTASVVCLLNNFYPREAKVQWKVDNALQSGNSQESVTEQDSKDSTYSLSSTLTLSKADYEKHKVYACEVTHQGLSSPVTKSFNRGEC"
